Reference: paper doi:10.1101/2025.07.04.663231, “Product-stabilized filamentation by human glutamine synthetase allosterically tunes metabolic activity” (bioRxiv, 2025)

Columns and labels:
[1] = molecular target: the molecule itself; assay: cryo-EM structure; turnover conditions (5 mM ATP, 25 mM ammonium chloride, 50 mM glutamate); decamer reconstruction (C1 for wild type, C5 for R298A)
[2] = molecular target: the molecule itself; assay: negative-stain electron microscopy; ~0.01 - 0.05 mg/mL in base buffer, 0.7% uranyl formate, 2D classification and averaging; oligomer seen in the 2D averages

| Protein | stoichiometry N [1] | stoichiometry N [2] |
| --- | --- | --- |
| human glutamine synthetase R298A (enzyme, human glutamine synthetase with R298A; Preparation of the mutant is not described; probably made scarless in E. coli like the wild type; also called loop variant R298A; copies: 10) not shown | 10 | – |
| N-terminally His6-tagged human glutamine synthetase (enzyme, human glutamine synthetase; expression vector ordered from ATUM; said to be the identical construct as in the X-ray structure of Krajewski et al. 2008; also called His6-tagged GS; 6xHIS-conjugated human glutamine synthetase; source: E. coli BL21(DE3), purified (HisTrap, Superose 6 SEC); not shown: His6, N-terminal, kept) not shown | – | 10 |
